Source: article PMC12820563, “FoxP3 forms a head-to-head dimer in vivo and stabilizes its multimerization on adjacent microsatellites”
Some of the results follow.

Target: T1, MBP-FoxP1dN (Mus musculus, UniProt P58462 326-579)
T1 sequence: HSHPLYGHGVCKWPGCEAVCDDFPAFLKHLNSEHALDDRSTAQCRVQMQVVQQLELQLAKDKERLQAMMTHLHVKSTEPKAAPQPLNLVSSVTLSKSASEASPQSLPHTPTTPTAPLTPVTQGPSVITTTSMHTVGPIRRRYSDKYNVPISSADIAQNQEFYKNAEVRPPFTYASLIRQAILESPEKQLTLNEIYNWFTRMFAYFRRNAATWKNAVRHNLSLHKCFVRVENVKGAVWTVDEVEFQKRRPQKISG
Test: PD-seq (MBP pull-down with sequencing); 20 mM Tris-HCl pH 7.5, 100 mM NaCl, 1.5 mM MgCl2, 0.4 uM protein, 0.1 uM dsDNA library, 30 min, room temperature, amylose pull-down; high values mean tight binding
Conditions: protein: recombinant; tags: His6-MBP; chain copies: 2; dsDNA, one strand shown
Procedure, shortened: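 His6-MBP-tagged mouse FoxP3 or FoxP1 fragment lacking the N-terminus, expressed in E. coli, was mixed at 0.4 µM with 0.1 µM Klenow-filled double-stranded degenerate DNA library. Incubation was 30 min at room temperature in Tris pH 7.5 buffer with NaCl and MgCl2. Complexes were caught on amylose resin and washed three times; DNA was released with proteinase K, PCR-barcoded and Illumina-sequenced. Binding is reads-per-million enrichment, pull-down over input, with replicates pooled.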

Going from “GATGATTGTTCTCCCAGCTGATGAATTTCGCTTTTCGAGTAAACAAATTTTCCTAATCTTTCTGTTCAAGCGCCATCTAC” to “GATGATTGTTCTCCCAGCTGATGAATTTAGATGCTCGAGTAAACAAATTTTCCTAATCTTTCTGTTCAAGCGCCATCTAC”, the binding signal rises from 0.933 RPM ratio (pull-down/input) to 1.78 RPM ratio (pull-down/input).

First: GATGATTGTTCTCCCAGCTGATGAATTTAAACGTTCGAGTAAACAAATTTTCCTAATCTTTCTGTTCAAGCGCCATCTAC
Second: GATGATTGTTCTCCCAGCTGATGAATTGATGCACTCGAGTAAACAAATTTTCCTAATCTTTCTGTTCAAGCGCCATCTAC
The binding signal of the first is lower: 0.923 RPM ratio (pull-down/input) for the first, 1.72 RPM ratio (pull-down/input) for the second.

Going from “GATGATTGTTCTCCCAGCTGATGAATTCAAACCATCGAGTAAACAAATTTTCCTAATCTTTCTGTTCAAGCGCCATCTAC” to “GATGATTGTTCTCCCAGCTGATGAATTTAGCTGTTCGAGTAAACAAATTTTCCTAATCTTTCTGTTCAAGCGCCATCTAC”, the binding signal rises from 0.914 RPM ratio (pull-down/input) to 1.03 RPM ratio (pull-down/input).

Going from “GATGATTGTTCTCCCAGCTGATGAATTCTAGATGTCGAGTAAACAAATTTTCCTAATCTTTCTGTTCAAGCGCCATCTAC” to “GATGATTGTTCTCCCAGCTGATGAATTGTCTGTGTCGAGTAAACAAATTTTCCTAATCTTTCTGTTCAAGCGCCATCTAC”, the binding signal rises from 0.96 RPM ratio (pull-down/input) to 1.11 RPM ratio (pull-down/input).

First: GATGATTGTTCTCCCAGCTGATGAATTCAATGAGTCGAGTAAACAAATTTTCCTAATCTTTCTGTTCAAGCGCCATCTAC
Second: GATGATTGTTCTCCCAGCTGATGAATTAAACCCCTCGAGTAAACAAATTTTCCTAATCTTTCTGTTCAAGCGCCATCTAC
The binding signal of the first is higher: 0.91 RPM ratio (pull-down/input) for the first, 0.85 RPM ratio (pull-down/input) for the second.

First: GATGATTGTTCTCCCAGCTGATGAATTGGAGAAATCGAGTAAACAAATTTTCCTAATCTTTCTGTTCAAGCGCCATCTAC
Second: GATGATTGTTCTCCCAGCTGATGAATTGTTTGCATCGAGTAAACAAATTTTCCTAATCTTTCTGTTCAAGCGCCATCTAC
The binding signal of the first is lower: 0.927 RPM ratio (pull-down/input) for the first, 2.26 RPM ratio (pull-down/input) for the second.

Compared with “GATGATTGTTCTCCCAGCTGATGAATTGGCCCTCTCGAGTAAACAAATTTTCCTAATCTTTCTGTTCAAGCGCCATCTAC”, “GATGATTGTTCTCCCAGCTGATGAATTTTCAGGCTCGAGTAAACAAATTTTCCTAATCTTTCTGTTCAAGCGCCATCTAC” is lower in binding signal: 0.852 RPM ratio (pull-down/input) for the first, 0.771 RPM ratio (pull-down/input) for the second.

Compared with “GATGATTGTTCTCCCAGCTGATGAATTACATTGATCGAGTAAACAAATTTTCCTAATCTTTCTGTTCAAGCGCCATCTAC”, “GATGATTGTTCTCCCAGCTGATGAATTCGGGTCGTCGAGTAAACAAATTTTCCTAATCTTTCTGTTCAAGCGCCATCTAC” is lower in binding signal: 1.21 RPM ratio (pull-down/input) for the first, 0.781 RPM ratio (pull-down/input) for the second.

Compared with “GATGATTGTTCTCCCAGCTGATGAATTTTGGTCCTCGAGTAAACAAATTTTCCTAATCTTTCTGTTCAAGCGCCATCTAC”, “GATGATTGTTCTCCCAGCTGATGAATTGGCGCGGTCGAGTAAACAAATTTTCCTAATCTTTCTGTTCAAGCGCCATCTAC” is lower in binding signal: 0.86 RPM ratio (pull-down/input) for the first, 0.784 RPM ratio (pull-down/input) for the second.

Going from “GATGATTGTTCTCCCAGCTGATGAATTAGTCATATCGAGTAAACAAATTTTCCTAATCTTTCTGTTCAAGCGCCATCTAC” to “GATGATTGTTCTCCCAGCTGATGAATTTCAGAATTCGAGTAAACAAATTTTCCTAATCTTTCTGTTCAAGCGCCATCTAC”, the binding signal falls from 1.07 RPM ratio (pull-down/input) to 0.914 RPM ratio (pull-down/input).

First: GATGATTGTTCTCCCAGCTGATGAATTGGCTATATCGAGTAAACAAATTTTCCTAATCTTTCTGTTCAAGCGCCATCTAC
Second: GATGATTGTTCTCCCAGCTGATGAATTGATGTGGTCGAGTAAACAAATTTTCCTAATCTTTCTGTTCAAGCGCCATCTAC
The binding signal of the first is lower: 0.923 RPM ratio (pull-down/input) for the first, 1.14 RPM ratio (pull-down/input) for the second.

Compared with “GATGATTGTTCTCCCAGCTGATGAATTCTACTTATCGAGTAAACAAATTTTCCTAATCTTTCTGTTCAAGCGCCATCTAC”, “GATGATTGTTCTCCCAGCTGATGAATTAATGCAATCGAGTAAACAAATTTTCCTAATCTTTCTGTTCAAGCGCCATCTAC” is higher in binding signal: 0.921 RPM ratio (pull-down/input) for the first, 1.55 RPM ratio (pull-down/input) for the second.

First: GATGATTGTTCTCCCAGCTGATGAATTGTCCCAATCGAGTAAACAAATTTTCCTAATCTTTCTGTTCAAGCGCCATCTAC
Second: GATGATTGTTCTCCCAGCTGATGAATTTACAGACTCGAGTAAACAAATTTTCCTAATCTTTCTGTTCAAGCGCCATCTAC
The binding signal of the first is lower: 1.11 RPM ratio (pull-down/input) for the first, 1.19 RPM ratio (pull-down/input) for the second.

Going from “GATGATTGTTCTCCCAGCTGATGAATTGTCTTGCTCGAGTAAACAAATTTTCCTAATCTTTCTGTTCAAGCGCCATCTAC” to “GATGATTGTTCTCCCAGCTGATGAATTCGGTCTCTCGAGTAAACAAATTTTCCTAATCTTTCTGTTCAAGCGCCATCTAC”, the binding signal falls from 0.934 RPM ratio (pull-down/input) to 0.739 RPM ratio (pull-down/input).

Compared with “GATGATTGTTCTCCCAGCTGATGAATTCGACTTCTCGAGTAAACAAATTTTCCTAATCTTTCTGTTCAAGCGCCATCTAC”, “GATGATTGTTCTCCCAGCTGATGAATTAGGGGCATCGAGTAAACAAATTTTCCTAATCTTTCTGTTCAAGCGCCATCTAC” is higher in binding signal: 0.822 RPM ratio (pull-down/input) for the first, 1 RPM ratio (pull-down/input) for the second.

First: GATGATTGTTCTCCCAGCTGATGAATTTTAGTTGTCGAGTAAACAAATTTTCCTAATCTTTCTGTTCAAGCGCCATCTAC
Second: GATGATTGTTCTCCCAGCTGATGAATTCCCGAAATCGAGTAAACAAATTTTCCTAATCTTTCTGTTCAAGCGCCATCTAC
The binding signal of the first is higher: 1.52 RPM ratio (pull-down/input) for the first, 0.952 RPM ratio (pull-down/input) for the second.

Going from “GATGATTGTTCTCCCAGCTGATGAATTCAATCAATCGAGTAAACAAATTTTCCTAATCTTTCTGTTCAAGCGCCATCTAC” to “GATGATTGTTCTCCCAGCTGATGAATTCCCTATCTCGAGTAAACAAATTTTCCTAATCTTTCTGTTCAAGCGCCATCTAC”, the binding signal falls from 1.02 RPM ratio (pull-down/input) to 0.782 RPM ratio (pull-down/input).

Compared with “GATGATTGTTCTCCCAGCTGATGAATTTTTGAACTCGAGTAAACAAATTTTCCTAATCTTTCTGTTCAAGCGCCATCTAC”, “GATGATTGTTCTCCCAGCTGATGAATTTTGCCAATCGAGTAAACAAATTTTCCTAATCTTTCTGTTCAAGCGCCATCTAC” is higher in binding signal: 0.882 RPM ratio (pull-down/input) for the first, 1.06 RPM ratio (pull-down/input) for the second.

First: GATGATTGTTCTCCCAGCTGATGAATTGTCACTTTCGAGTAAACAAATTTTCCTAATCTTTCTGTTCAAGCGCCATCTAC
Second: GATGATTGTTCTCCCAGCTGATGAATTGCAAAGATCGAGTAAACAAATTTTCCTAATCTTTCTGTTCAAGCGCCATCTAC
The binding signal of the first is lower: 1.04 RPM ratio (pull-down/input) for the first, 1.24 RPM ratio (pull-down/input) for the second.

Compared with “GATGATTGTTCTCCCAGCTGATGAATTCCCTCCCTCGAGTAAACAAATTTTCCTAATCTTTCTGTTCAAGCGCCATCTAC”, “GATGATTGTTCTCCCAGCTGATGAATTCAAGATGTCGAGTAAACAAATTTTCCTAATCTTTCTGTTCAAGCGCCATCTAC” is higher in binding signal: 0.787 RPM ratio (pull-down/input) for the first, 0.87 RPM ratio (pull-down/input) for the second.
